Values joined by “and” are separate entries in the source; they are usually repeats but may differ in a detail not shown here. Equal entries are not always repeated. The shares of active, inactive and inconclusive entries below differ from those in the screen. For some of these results: Potencies of inconclusive entries are left out as doubtful fits. Active and inactive are the calls of the source. Unless noted, the call rests on the fitted dose curve; in most records, active means well fitted curve in the direction sought with a large enough effect in the repeat runs; inconclusive means weak or mixed curves; inactive means no such curve, though single readings can be large; an effect the other way counts as inactive or inconclusive.
Experiments:
[1] = qHTS RealTime-Glo MT Cell Viability Assay in HEK293 cells - 8 hour (AID 1224887); further: nearly all actives have a fitted effect of over 50% in size; further: potency means the concentration at half of the fitted maximal effect
How it was run: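 Viable HEK293 cells reduce a cell-permeant prosubstrate; the product diffuses out and is consumed by NanoLuc in the medium to give light. Compounds went in after a 5 h incubation and plates were read over the treatment course.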

[2] = qHTS RealTime-Glo MT Cell Viability Assay in HepG2 cells - 0 hour (AID 1224889); further: on the % scale 0 is the no-effect control and ±100 the full control effect; nearly all actives have a fitted effect of over 50% in size
How it was run: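 HepG2 suspension premixed with RealTime-Glo reagents is plated at 600 cells per well and left 5 h at 37 C/5% CO2. Compounds in DMSO then go in, and bioluminescence reflecting viable cell number is recorded over 40 h.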

[3] = A CellTox Green Cytotoxicity Assay to monitor cytotoxicity in HepG2 cells - 8 hour (AID 1224890); further: potency means the concentration at half of the fitted maximal effect; nearly all actives have a fitted effect of over 45% in size
How it was run: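 Using 1536-well format, dye-containing HepG2 suspension was seeded, allowed 5 h at 37 C/5% CO2, dosed by pintool with compounds, positive and negative controls, and imaged for fluorescence across 40 h.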

[4] = qHTS assay to identify small molecule antagonists of the estrogen receptor alpha (ER-alpha) signaling pathway using the BG1 cell line in the presence of 0.1 nM 17-beta-estradiol - cell viability counter screen (AID 1259241); further: potency means the concentration at half of the fitted maximal effect; nearly all actives have a fitted effect of over 40% in size
How it was run: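 Following 5 days in phenol red-free medium with charcoal-stripped serum, VM7Luc4E2 cells received test compounds alongside 0.1 nM 17beta-estradiol (final) at 37C for 22 hr. Live cells were then quantified via protease-substrate fluorescence.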

[5] = biological target: Estrogen receptor (Homo sapiens) (UniProt P03372); test: qHTS assay to identify small molecule antagonists of the estrogen receptor alpha (ER-alpha) signaling pathway using the BG1 cell line in the presence of 0.1 nM 17-beta-estradiol (AID 1259244); further: potency means the concentration at half of the fitted maximal effect; nearly all actives have a fitted effect of over 50% in size
How it was run: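 Estradiol at 0.1 nM (final) stimulates the endogenous ER-alpha of VM7Luc4E2 cells carrying an ERE-driven luciferase; compounds are co-incubated 22 h at 37C and luciferase output quantified by luminescence.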

[6] = qHTS assay to identify small molecule agonists of the sonic hedgehog signaling (Shh) pathway - cell viability counter screen (AID 1259366); further: nearly all actives have a fitted effect of over 50% in size; further: potency means the concentration at half of the fitted maximal effect
How it was run: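 Compounds in DMSO were pin-transferred onto 3T3 Gli1-Luc cells that had settled 4hr; plates then stood 24hr at 37C and 5% CO2. One hour before the end, CellTiter-Fluor was added and fluorescence recorded.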

[7] = qHTS assay to identify small molecule antagonists of the sonic hedgehog signaling (Shh) pathway (AID 1259369; calls by dose curve; further: nearly all actives have a fitted effect of over 45% in size; further: potency means the concentration at half of the fitted maximal effect)
How it was run: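 For antagonist detection, the reporter line received test compounds together with conditioned medium, incubated 24hr at 37 C, 5% CO2, then luminescence was recorded following 30min room-temperature luciferase reagent incubation.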

[8] = biological target: Estrogen receptor beta (Homo sapiens) (UniProt Q92731); test: qHTS assay to identify small molecule agonists of the estrogen receptor beta (ER-beta) signaling pathway (AID 1259377; active means well fitted activation curve with a large enough effect in the signal ratio in the repeat runs, not every such curve was filed as active; inconclusive means weak or mixed curves, or effect the other way; the % refers to the signal ratio; further: potency means the concentration at half of the fitted maximal effect; on activation: on the % scale 0 is the no-effect control and ±100 the full control effect); settings: ER-beta-UAS-bla HEK293T, beta-lactamase FRET ratio, 16 h; activation: at 92.4 µM (top of the series) unless noted
How it was run: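 qHTS in ER-beta-UAS-bla HEK293T cells: 6 hr settling, then 16 hr compound at 37C, then LiveBLAzer substrate 2 h at RT before fluorescence reading.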

[9] = qHTS assay to identify small molecule antagonists of the androgen receptor (AR) signaling pathway using the MDA cell line in the presence of 0.5 nM R1881 - cell viability counter screen (AID 1259242); further: potency means the concentration at half of the fitted maximal effect; nearly all actives have a fitted effect of over 45% in size
How it was run: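 Viability of MDA-kb2 cells was multiplexed with the luciferase AR readout; after 16 hr with compounds and R1881 at 0.5 nM final, CellTiter-Fluor fluorescence was recorded.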

[10] = A CellTox Green Cytotoxicity Assay to monitor cytotoxicity in HEK293 cells - 16 hour (AID 1224888); further: nearly all actives have a fitted effect of over 35% in size; further: potency means the concentration at half of the fitted maximal effect; on activity change: on the % scale 0 is the no-effect control and ±100 the full control effect
How it was run: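 Fluorescence intensity, read at 0, 8, 16, 24, 32 and 40 h of compound treatment, reflected dye binding to DNA of dead HEK293 cells; compounds (23 nL, DMSO) were added 5 h after plating cells with reagent.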

[11] = qHTS assay to identify small molecule phospholipidosis (PLD) inducers (AID 1259344; active means well fitted curve in the direction sought with a large enough effect; inconclusive means small, poorly fitted or top-dose-only effect, or another doubt; inactive means no such curve, though single readings can be large; an effect the other way counts as inactive or inconclusive; further: on the % scale 0 is the no-effect control and ±100 the full control effect)
How it was run: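 HepG2 cells grown on collagen I take up LipidTOX Red while exposed to compound for 24 h; after fixation they are imaged at 20x and pit metrics are extracted.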

[12] = qHTS assay to identify small molecule antagonists of the sonic hedgehog signaling (Shh) pathway - cell viability counter screen (AID 1259367); further: on the % scale 0 is the no-effect control and ±100 the full control effect; nearly all actives have a fitted effect of over 55% in size
How it was run: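 After a 4 hr settling period, 3T3 Gli1-Luc cells were treated with DMSO-dissolved chemicals and conditioned medium, kept 24 hr at 37C in 5% CO2, and assayed for viability by CellTiter-Fluor fluorescence following 1 hr reagent incubation.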
Tags describe the fitted curve by direction and shape or compound fluorescence and quenching.

UniProt Q92731, sequence (Q92731 whole entry, looked up): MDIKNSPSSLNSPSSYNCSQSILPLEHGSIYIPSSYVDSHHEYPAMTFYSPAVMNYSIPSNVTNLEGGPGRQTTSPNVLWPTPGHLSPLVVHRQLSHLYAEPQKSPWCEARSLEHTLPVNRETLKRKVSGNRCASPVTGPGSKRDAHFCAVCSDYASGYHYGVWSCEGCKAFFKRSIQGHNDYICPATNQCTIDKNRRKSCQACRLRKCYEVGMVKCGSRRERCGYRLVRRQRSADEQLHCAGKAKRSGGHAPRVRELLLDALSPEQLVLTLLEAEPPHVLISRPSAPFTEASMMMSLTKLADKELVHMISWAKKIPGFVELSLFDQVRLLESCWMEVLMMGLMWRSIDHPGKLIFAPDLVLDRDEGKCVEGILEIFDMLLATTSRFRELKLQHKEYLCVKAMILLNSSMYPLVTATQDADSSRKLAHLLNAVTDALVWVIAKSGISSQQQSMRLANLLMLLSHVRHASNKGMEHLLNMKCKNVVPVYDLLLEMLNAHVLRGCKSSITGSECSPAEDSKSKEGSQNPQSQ
UniProt P03372, sequence (P03372 whole entry, looked up): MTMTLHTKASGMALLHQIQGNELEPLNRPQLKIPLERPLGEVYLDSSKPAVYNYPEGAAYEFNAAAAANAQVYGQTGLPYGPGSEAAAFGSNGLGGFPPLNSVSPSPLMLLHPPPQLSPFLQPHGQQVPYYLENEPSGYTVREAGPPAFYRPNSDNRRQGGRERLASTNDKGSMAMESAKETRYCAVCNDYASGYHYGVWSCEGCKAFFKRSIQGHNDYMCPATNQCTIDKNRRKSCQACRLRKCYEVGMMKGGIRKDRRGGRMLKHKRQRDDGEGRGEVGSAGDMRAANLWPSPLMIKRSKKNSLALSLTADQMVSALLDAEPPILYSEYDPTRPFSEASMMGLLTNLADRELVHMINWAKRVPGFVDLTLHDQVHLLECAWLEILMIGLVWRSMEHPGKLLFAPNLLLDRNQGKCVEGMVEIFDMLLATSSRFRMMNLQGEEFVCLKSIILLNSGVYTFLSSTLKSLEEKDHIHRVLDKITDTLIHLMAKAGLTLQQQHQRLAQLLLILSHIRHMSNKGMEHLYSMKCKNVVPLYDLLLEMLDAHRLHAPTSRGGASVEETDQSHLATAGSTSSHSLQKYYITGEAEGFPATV

In the case of `NC(=O)N(O)[C@@H]1C=C[C@H](Oc2cccc(Oc3ccc(F)cc3)c2)C1`, the Potency [1] is reported as inconclusive [cytotoxic, full curve], the Potency [2] is reported as “inactive” and the Potency [3] is reported as inconclusive [activator, partial curve]. For the same molecule, the Potency [4] was inconclusive [cytotoxic, partial curve, poor fit], the Potency [5] was inconclusive [inhibitor, single point] and the Potency [6] was “inactive”. The Potency [7] was inconclusive [inhibitor, full curve].
In the case of `O=C(O)Cc1ccc2c(c1)C(=O)c1ccccc1CO2`, the Potency [1] is reported as “inactive”.
With `O=Cc1ccc([N+](=O)[O-])cc1` the Potency [1] was “inactive”.
In the case of `NC(=O)c1ccccc1C(N)=O`, the Potency [1] is reported as inconclusive [cytotoxic, partial curve, poor fit], the Potency [4] is reported as inconclusive [rising, partial curve] and the activation [8] is reported as inconclusive: 9.39%.
For `NC(=O)NS(=O)(=O)c1ccc(N)cc1`, the Potency [1] was “inactive”.
In the case of `Cc1cc(O)ccc1N`, the Potency [1] is reported as active: 43.9 µM, the Potency [4] is reported as inconclusive [cytotoxic, partial curve] and the Potency [9] is reported as inconclusive [cytotoxic, partial curve, poor fit].
For `Cc1cc(=O)[nH]c(C(C)C)n1`, the Potency [1] was “inactive”, the Potency [7] was inconclusive [inhibitor, single point] and the activation [8] was inconclusive: 8.78% and inconclusive: 11.6%.
For `COc1cc(NC(C)CCCN)c2ncccc2c1` (centres undefined), the Potency [1] was inconclusive [cytotoxic, partial curve, poor fit] and the Potency [6] was “inactive”.
For `COc1ccc(NC(=O)CC(C)=O)cc1`, the Potency [10] was inconclusive [activator, single point].
For `Cc1ccc2c(ccc3ccccc32)c1`, the Potency [1] was “inactive” and the Potency [8] was “inactive”.
With `CCN(CC)C(=O)N(CC)CC` the Potency [10] was “inactive”.
For `CC(=O)Oc1cc2c(s1)CCN(C(C(=O)C1CC1)c1ccccc1F)C2` (centres undefined), the Potency [1] was “inactive” and the Potency [7] was inconclusive [inhibitor, single point].
For `ON=C1CCCC1`, the Potency [1] was inconclusive [cytotoxic, partial curve], the Potency [5] was inconclusive [inhibitor, single point] and the Potency [7] was “inactive”. The activation [8] was inconclusive: 3.27%.
For `COc1cc(NS(=O)(=O)c2ccc(N)cc2)nc(OC)n1`, the Potency [1] was “inactive” and the Potency [8] was “inactive”.
With `CCO[Si](CCC1CCC2OC2C1)(OCC)OCC` (centres undefined) the Potency [1] was “inactive” and the Potency [7] was inconclusive [inhibitor, single point].
In the case of `CNC1CCCN(c2c(F)cc3c(=O)c(C(=O)O)cn(C4CC4)c3c2OC)C1` (centres undefined), the Potency [1] is reported as “inactive” and the Potency [7] is reported as “inactive”.
With `CCCCN1C[C@H](O)[C@@H](O)[C@H](O)[C@H]1CO` the Potency [10] was “inactive”.
With `CC(C)(Oc1ccc(Cl)cc1)C(=O)O` the Potency [1] was “inactive” and the Potency [11] was “inactive”.
With `CCOC(=O)Nc1ccc(NCc2ccc(F)cc2)nc1N` the Potency [1] was “inactive” and the Potency [12] was “inactive”.
With `CCCCOC(=O)c1ccccc1` the Potency [10] was “inactive”.
In the case of `CC[C@@H](N)CO`, the Potency [1] is reported as “inactive” and the Potency [7] is reported as inconclusive [inhibitor, single point].
In the case of `O=C1NC(=O)[C@@]2(CCOc3ccc(F)cc32)N1`, the Potency [10] is reported as “inactive”.
With `CCn1cc(C(=O)O)c(=O)c2ccc(C)nc21` the Potency [10] was inconclusive [activator, partial curve].
In the case of `CCCOC(=O)C(C)O` (centres undefined), the Potency [10] is reported as “inactive”.
With `C=C(C)C1CC=C(C)C(=O)C1` (centres undefined) the Potency [10] was “inactive”.
In the case of `Cn1c([N+](=O)[O-])cnc1COC(N)=O`, the Potency [10] is reported as inconclusive [activator, partial curve].
For `CCCCN(CCCC)C(=S)SSC(=S)N(CCCC)CCCC`, the Potency [1] was active: 34.3 µM and the Potency [6] was inconclusive [cytotoxic, single point].
For `COc1cnc(NS(=O)(=O)c2ccc(N)cc2)nc1`, the Potency [1] was “inactive” and the Potency [11] was “inactive”.
With `CC(C)(C)CC(C)(C)c1ccc(Nc2ccc(C(C)(C)CC(C)(C)C)cc2)cc1` the activity change [10] was inactive: 5.08% [at 6.97 µM, active compounds read high].
For `C=CC(C)(C)CC(=O)OC`, the Potency [1] was inconclusive [cytotoxic, full curve], the Potency [12] was “inactive” and the Potency [7] was active: 27.4 µM.
In the case of `COc1cc(NS(=O)(=O)c2ccc(N)cc2)nc(C)n1`, the Potency [1] is reported as “inactive” and the Potency [7] is reported as “inactive”.
With `COc1cc2c3cc1Oc1cc(ccc1O)C[C@@H]1c4c(cc(OC)c(O)c4Oc4ccc(cc4)C[C@@H]3N(C)CC2)CC[N+]1(C)C` the Potency [1] was “inactive”, the Potency [6] was “inactive” and the Potency [8] was active: 26.6 µM.
For `Cc1ncc(COP(=O)(O)O)c(C=O)c1O`, the Potency [10] was “inactive”.

From PubChem BioAssay (Tox21)
